Measured values from paper PMC8368198.
Results are given in words; binding and its absence hold for the method and conditions named. In cells and extracts the contact can be indirect. Some binding calls cover weakened binding; strength is not graded here. For some of these results: Tags and fused reporters may be left off the sequences shown.

Chains of the proteins cited; added tags and fusions are not shown. Residues count along the entry.
UniProt P38646, residues 47-679: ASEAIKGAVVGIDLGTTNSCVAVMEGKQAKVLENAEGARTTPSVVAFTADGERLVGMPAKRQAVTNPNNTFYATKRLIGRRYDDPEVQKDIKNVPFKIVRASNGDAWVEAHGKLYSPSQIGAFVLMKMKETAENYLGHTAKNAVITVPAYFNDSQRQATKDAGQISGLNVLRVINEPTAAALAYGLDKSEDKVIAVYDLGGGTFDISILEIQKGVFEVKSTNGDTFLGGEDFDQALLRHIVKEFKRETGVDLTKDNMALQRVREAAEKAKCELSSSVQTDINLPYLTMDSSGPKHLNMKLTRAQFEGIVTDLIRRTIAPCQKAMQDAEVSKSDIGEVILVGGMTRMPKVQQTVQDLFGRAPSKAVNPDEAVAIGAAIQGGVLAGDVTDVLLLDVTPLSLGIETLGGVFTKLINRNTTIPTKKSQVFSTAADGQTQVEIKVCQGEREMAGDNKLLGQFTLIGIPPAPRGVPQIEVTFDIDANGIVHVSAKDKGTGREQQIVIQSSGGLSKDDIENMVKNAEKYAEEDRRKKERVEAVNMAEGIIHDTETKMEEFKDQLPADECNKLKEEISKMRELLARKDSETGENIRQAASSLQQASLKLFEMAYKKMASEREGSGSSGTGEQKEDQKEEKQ

T1: 3x FLAG-tagged wild-type LONP1 (human ATP-dependent mitochondrial Lon protease) (human) (UniProt P36776)
T1 sequence: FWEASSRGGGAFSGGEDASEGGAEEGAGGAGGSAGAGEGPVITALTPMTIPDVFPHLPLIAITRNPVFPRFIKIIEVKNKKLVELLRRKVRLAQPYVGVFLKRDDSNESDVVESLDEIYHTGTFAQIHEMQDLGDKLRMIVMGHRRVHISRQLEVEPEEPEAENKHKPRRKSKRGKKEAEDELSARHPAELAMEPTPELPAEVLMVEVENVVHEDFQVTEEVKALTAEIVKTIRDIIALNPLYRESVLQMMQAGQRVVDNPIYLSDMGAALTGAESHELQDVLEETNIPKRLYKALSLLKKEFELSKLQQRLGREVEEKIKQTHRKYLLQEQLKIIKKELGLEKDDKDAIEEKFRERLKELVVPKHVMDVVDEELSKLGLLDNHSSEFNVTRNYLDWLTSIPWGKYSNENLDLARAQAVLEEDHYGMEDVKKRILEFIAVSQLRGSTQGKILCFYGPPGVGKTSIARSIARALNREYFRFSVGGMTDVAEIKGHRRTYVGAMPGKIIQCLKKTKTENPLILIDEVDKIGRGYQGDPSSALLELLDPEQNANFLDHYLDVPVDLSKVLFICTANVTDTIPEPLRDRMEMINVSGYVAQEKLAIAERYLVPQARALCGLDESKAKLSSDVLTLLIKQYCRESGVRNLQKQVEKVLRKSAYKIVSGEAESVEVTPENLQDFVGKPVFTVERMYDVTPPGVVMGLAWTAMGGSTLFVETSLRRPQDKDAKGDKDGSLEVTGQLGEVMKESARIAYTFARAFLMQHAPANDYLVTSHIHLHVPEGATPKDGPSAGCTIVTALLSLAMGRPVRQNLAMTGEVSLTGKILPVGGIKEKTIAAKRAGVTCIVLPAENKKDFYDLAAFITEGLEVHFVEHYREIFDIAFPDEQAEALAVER

T2: mitochondrial inner membrane translocase, TIMM22 (human (endogenous; HeLa or HEK293, cells not stated)) (UniProt Q9Y584)
T2 sequence: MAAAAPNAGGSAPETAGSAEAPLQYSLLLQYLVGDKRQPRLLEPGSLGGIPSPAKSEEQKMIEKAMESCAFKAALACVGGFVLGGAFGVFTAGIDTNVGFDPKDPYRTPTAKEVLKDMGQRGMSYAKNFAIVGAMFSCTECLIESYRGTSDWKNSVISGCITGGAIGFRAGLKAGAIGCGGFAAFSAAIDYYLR

T3: LONP1 (endogenous, in isolated HeLa mitochondria) (human (endogenous in HeLa)) (UniProt P36776)
T3 sequence: T1 sequence

B1: PMPCB (protease subunit of mitochondrial processing peptidase) (protein, UniProt O75439 44-489)
chain: STQAATQVVLNVPETRVTCLESGLRVASEDSGLSTCTVGLWIDAGSRYENEKNNGTAHFLEHMAFKGTKKRSQLDLELEIENMGAHLNAYTSREQTVYYAKAFSKDLPRAVEILADIIQNSTLGEAEIERERGVILREMQEVETNLQEVVFDYLHATAYQNTALGRTILGPTENIKSISRKDLVDYITTHYKGPRIVLAAAGGVSHDELLDLAKFHFGDSLCTHKGEIPALPPCKFTGSEIRVRDDKMPLAHLAIAVEAVGWAHPDTICLMVANTLIGNWDRSFGGGMNLSSKLAQLTCHGNLCHSFQSFNTSYTDTGLWGLYMVCESSTVADMLHVVQKEWMRLCTSVTESEVARARNLLKTNMLLQLDGSTPICEDIGRQMLCYNRRIPIPELEARIDAVNAETIREVCTKYIYNRSPAIAAVGPIKQLPDFKQIRSNMCWLRD
B2: superoxide dismutase 2 (SOD2), endogenous (protein, UniProt P04179 25-222)
chain: KHSLPDLPYDYGALEPHINAQIMQLHHSKHHAAYVNNLNVTEEKYQEALAKGDVTAQIALQPALKFNGGGHINHSIFWTNLSPNGGGEPKGELLEAIKRDFGSFDKFKEKLTAASVGVQGSGWGWLGFNKERGHLQIAACPNQDPLQGTTGLIPLLGIDVWEHAYYLQYKNVRPDYLKAIWNVINWENVTERYMACKK
B3: LONP1 (as in the co-immunoprecipitations of Supplementary Fig. S9) (enzyme, UniProt P36776 68-959)
chain: T1 sequence
B4: SOD2-3xFLAG, unprocessed form (mitochondrial precursor protein) (protein, UniProt P04179 1-222)
chain: MLSRAVCGTSRQLAPVLGYLGSRQKHSLPDLPYDYGALEPHINAQIMQLHHSKHHAAYVNNLNVTEEKYQEALAKGDVTAQIALQPALKFNGGGHINHSIFWTNLSPNGGGEPKGELLEAIKRDFGSFDKFKEKLTAASVGVQGSGWGWLGFNKERGHLQIAACPNQDPLQGTTGLIPLLGIDVWEHAYYLQYKNVRPDYLKAIWNVINWENVTERYMACKK
B5: SOD2-3xFLAG, mature form (protein, UniProt P04179 25-222)
chain: B2 chain

How the values were obtained:
[1] = biological target: T1, 3x FLAG-tagged wild-type LONP1 (human ATP-dependent mitochondrial Lon protease) (human); assay: co-IP; HEK293 cells expressing 3xFLAG-LONP1 (1 ng/mL doxycycline, 3 d) treated with the reversible crosslinker DSP (2 mM, on ice, 30 min), extracted in RIPA buffer; anti-FLAG-tag mAb magnetic beads, 90 min at 4 °C, eluted with FLAG peptides; DSP cleaved with DTT; immunoblot
[2] = biological target: T2, mitochondrial inner membrane translocase, TIMM22 (human (endogenous; HeLa or HEK293, cells not stated)); assay: co-IP; immunoprecipitation with anti-TIMM22 antibody (Proteintech) on Dynabeads Protein G; immunoblot (Supplementary Fig. S9d)
[3] = biological target: T3, LONP1 (endogenous, in isolated HeLa mitochondria) (human (endogenous in HeLa)); assay: co-IP; in vitro import assay: in vitro translated precursor incubated with isolated HeLa mitochondria for 20 min at 30 °C; mitochondria treated with DSP on ice for 30 min, extracted in RIPA buffer; anti-LONP1 antibody (Proteintech) on Dynabeads Protein G; immunoblot (Supplementary Fig. S10b)

Molecule | binding [1] | other results
mtHSP70/mortalin/HSPA9 (from UniProt P38646 47-679) | binds | 
MRPS16 (from UniProt Q9Y3D3 35-137) | binds | 
B1 | binds | 
B2 | no binding | 
B3 |  | binding [2]: no binding
B4 |  | binding [3]: no binding
B5 |  | binding [3]: no binding
